Laboratory results: the supplement of paper PMC12217912
This is one part of the list. Sequences were assembled here from the parent chain. Inactive controls read about 0.05.

B1: TEV protease; numbered along this chain (parent)
chain: MGESLFKGPRDYNPISSSICHLTNESDGHTTSLYGIGFGPFIITNKHLFRRNNGTLVVQSLHGVFKVKDTTTLQQHLVDGRDMIIIRMPKDFPPFPQKLKFREPQREERICLVTTNFQTKSMSSMVSDTSCTFPSGDGIFWKHWIQTKDGQCGSPLVSTRDGFIVGIHSASNFTNTNNYFTSVPKNFMELLTNQEAQQWVSGWRLNADSVLWGGHKVFMVKPEEPFQPVKEATQL

Variants of: B1
Assay: raw area under fraction-flipped curve 0-4 h after induction (AUC4h, not background-subtracted), DNA-recorder readout of cleavage of the substrate (dimensionless); higher = more cleavage of the substrate by the protease variant
Details: temperature: 34 °C; time window: 0-4 h after rhamnose induction
Description: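 In vivo DNA recorder in E. coli TOP10(DE3) ΔrhaA at 34 °C. Each TEVp single-site mutant (parent TEVp 0) is paired with a single-site variant of the 7-mer TEVs (canonical ENLYFQ|S). The substrate sits between flexible linkers in a Bxb1-sfGFP-TEVs-SsrA fusion, so cleavage stabilises Bxb1 and speeds flipping of a recombination array, read by NGS. The value is the raw area under the fraction-flipped curve over 0-4 h after rhamnose induction (AUC4h), with ≥20 reads per time point. It is not background-subtracted; inactive controls average about 0.047.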
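Also: Bxb1 expression induced with 0.2% (w/v) L-rhamnose at OD600 near 0.5, cultures sampled hourly, flipped fraction per protease–substrate barcode pair counted by paired-end Illumina sequencing.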

Variant	area with substrate ANLYFQS	area with substrate CNLYFQS	area with substrate DNLYFQS	area with substrate INLYFQS	area with substrate KNLYFQS	area with substrate LNLYFQS	area with substrate MNLYFQS	area with substrate PNLYFQS	area with substrate SNLYFQS	area with substrate TNLYFQS	area with substrate VNLYFQS	area with substrate WNLYFQS	area with substrate FNLYFQS	area with substrate HNLYFQS	area with substrate NNLYFQS	area with substrate YNLYFQS	area with substrate GNLYFQS	area with substrate QNLYFQS	area with substrate RNLYFQS
H168E	0.0533	0.0683	0.0584	0.0577	0.0665	0.0551	0.063	0.0505	0.055	0.0622	0.0504	0.0539	–	–	–	–	–	–	–
H168L	0.0739	0.0612	–	0.0629	0.066	0.0462	–	0.0774	0.057	0.0502	–	0.0591	0.0636	0.0632	0.0593	0.0593	–	–	–
H168F	0.0573	0.0677	–	0.0697	–	–	–	0.0649	0.0558	0.0502	0.0767	0.0531	0.0585	–	–	0.0622	–	–	–
H168I	0.057	0.053	0.0664	0.0529	0.0468	0.0618	0.0485	0.0482	0.0665	0.0537	–	0.0522	–	0.0559	0.0543	0.0485	0.0666	0.0548	0.106
Q197W	0.0543	0.0478	0.07	–	0.054	0.0484	–	0.0614	–	0.056	0.0673	0.0597	0.0563	0.066	0.0609	0.051	–	0.0517	–
P184C	0.0665	–	0.0746	0.0551	0.0859	0.0655	0.0439	0.0697	0.0617	0.0673	0.0525	0.0476	–	–	0.0643	–	0.0848	–	0.0682
P184V	0.0458	0.0587	0.0568	–	0.0602	0.0515	0.0638	0.0516	–	0.0543	0.0528	0.05	–	0.0566	0.0572	0.0492	0.0603	–	–
P184G	0.057	–	0.0616	0.0553	0.0603	0.0701	–	–	0.0544	0.0638	0.059	0.0568	–	0.0681	–	0.0783	–	0.0554	0.0476
P184S	0.0556	0.0675	0.0826	–	0.0586	–	0.0544	0.0514	0.0589	0.0529	0.0501	0.0553	0.0597	0.0547	0.0572	0.0579	0.057	–	0.0388
P184H	0.0518	–	–	–	0.0288	0.0614	0.0558	0.0701	–	0.0545	–	0.0809	–	0.052	0.0541	–	0.0312	–	–
N175K	0.0727	0.0734	0.0767	0.0657	0.0695	0.0674	0.0606	0.0554	0.0661	–	0.075	0.0537	0.0564	–	0.0652	0.062	0.0873	0.0949	0.0613
T192E	0.0896	0.0676	–	–	–	–	0.0668	0.0611	0.065	0.0854	0.0748	0.056	0.0681	0.0527	–	–	–	–	–
T192I	0.0854	0.0645	0.0695	0.0481	0.0591	0.0698	0.0647	0.0697	0.0703	0.0714	–	0.0571	0.0717	0.0655	0.0598	0.07	0.0743	0.063	0.0415
T192V	0.0723	0.0642	–	0.156	–	–	–	–	0.0677	–	–	0.0621	–	–	–	–	–	–	–
D161V	0.0425	0.0444	0.0582	0.0464	0.0312	0.0548	0.0577	0.0565	0.0519	0.053	–	0.0574	0.0597	0.0511	0.046	0.0512	0.0682	–	0.0495
V157F	0.0565	0.0504	0.0562	0.0529	0.0536	0.0622	0.0551	0.0514	0.0498	0.0648	0.0601	0.0595	0.0576	0.0479	–	0.0546	0.048	–	–
F140R	0.0796	0.0579	0.0701	0.0577	0.066	0.0662	0.0663	0.0666	0.0591	0.0748	0.0602	0.0517	0.0388	0.0599	0.0665	0.0585	0.0591	–	0.0629
N177E	0.0393	0.0841	0.0868	0.0882	0.116	0.088	0.0867	0.0922	0.0808	0.0837	–	0.0631	0.0907	0.0812	0.0881	0.0421	0.0813	–	–
G150E	0.0628	0.074	0.061	0.0546	0.0696	–	0.06	0.0665	0.0518	0.0489	0.0687	0.0244	0.0576	0.056	0.058	0.0723	–	–	0.0642
G150W	0.0602	0.0586	0.0598	0.0625	0.0611	0.0587	0.0602	0.0582	0.0773	0.0574	0.0419	0.0555	0.0508	0.0597	0.0562	0.0786	0.0624	–	0.0544
I167K	0.0575	0.0522	0.0505	0.0532	0.0537	–	0.0396	0.0591	0.0594	0.0578	0.0449	0.0592	0.057	0.0493	0.0581	0.0506	0.0581	–	–
K148A	0.0859	0.0728	0.0702	0.067	–	0.0765	0.065	0.0677	0.0577	0.0611	–	0.0574	0.0689	0.0568	0.0612	0.0638	–	–	0.0545
W144R	0.0609	0.0732	0.0636	–	0.058	0.0662	–	0.0683	–	0.0815	–	0.0518	0.0581	0.0681	–	0.0668	–	–	–
W144C	0.0696	–	0.0745	0.0677	–	–	0.0675	0.0772	0.0617	0.0677	–	0.0457	–	0.0677	0.066	0.0686	0.0693	–	0.0741
W144Y	0.0652	0.073	0.0631	0.063	0.0574	0.0706	0.083	0.0654	0.0649	0.0586	0.0755	0.0565	0.067	0.0715	0.054	0.0761	–	0.082	0.0651
